{"source": "PubChem BioAssay AID2676", "about": "(National Center for Advancing Translational Sciences (NCATS), 2010)", "note": "Out of some 370,000 compounds screened, about 1,100 (0.3%) were called active. Inconclusive means that the source gave no clear call. Such entries were picked first, then a sample of the others. Calls follow the shape of the dose curve; as a rule, active = well fitted activation curve with a large enough effect; inconclusive = small, poorly fitted or top-dose-only effect; inactive = flat fitted curve, though single readings scatter. Where the call is inconclusive, the potency comes from a doubtful curve fit. Potency is read from the fitted curve at half-maximal effect; tags tell the direction and shape of the fitted curve.", "data": [{"target": "Relaxin receptor 1 (Homo sapiens) (UniProt Q9HBX9)", "sequence (Q9HBX9 whole entry, looked up)": "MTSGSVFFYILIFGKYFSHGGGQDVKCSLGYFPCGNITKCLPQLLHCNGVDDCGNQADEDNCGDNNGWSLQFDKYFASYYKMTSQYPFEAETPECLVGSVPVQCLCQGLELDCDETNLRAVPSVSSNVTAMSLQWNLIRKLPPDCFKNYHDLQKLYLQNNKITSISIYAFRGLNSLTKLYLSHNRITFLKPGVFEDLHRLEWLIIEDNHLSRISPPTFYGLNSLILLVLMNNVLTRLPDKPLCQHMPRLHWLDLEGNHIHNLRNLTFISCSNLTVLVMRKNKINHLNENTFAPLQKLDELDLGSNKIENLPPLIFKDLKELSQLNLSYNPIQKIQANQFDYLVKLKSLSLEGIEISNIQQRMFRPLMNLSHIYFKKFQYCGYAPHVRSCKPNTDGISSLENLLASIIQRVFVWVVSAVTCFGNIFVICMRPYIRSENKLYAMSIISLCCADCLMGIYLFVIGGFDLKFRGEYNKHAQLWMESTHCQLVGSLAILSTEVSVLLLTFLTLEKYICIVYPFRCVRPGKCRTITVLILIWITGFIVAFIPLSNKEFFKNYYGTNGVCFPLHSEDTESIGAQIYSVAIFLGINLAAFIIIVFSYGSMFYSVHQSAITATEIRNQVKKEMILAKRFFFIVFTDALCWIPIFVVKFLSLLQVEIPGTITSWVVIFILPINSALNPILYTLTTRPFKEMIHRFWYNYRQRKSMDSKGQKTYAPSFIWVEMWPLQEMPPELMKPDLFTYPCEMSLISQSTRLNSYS", "test": "qHTS Assay for Agonists of the Relaxin Receptor RXFP1; also: nearly all actives have a fitted effect of over 60% in size", "details": "HEK293T-RXFP1 cAMP TR-FRET, 30 min; series mostly up to 57.5 µM", "outline": "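cAMP rise read by TR-FRET after 30 min, 37C compound exposure (up to 58 uM) in RXFP1-transfected HEK293 cells with Ro 20174 present. EC50 from Hill-equation fits, with 29 nM porcine relaxin as 100% and buffer as basal.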", "values": [{"smiles": "Cc1ccc(C(=O)Nc2nc3ccc(S(C)(=O)=O)cc3s2)cc1C", "Potency": "inconclusive: 35.5 µM [activator, single point]"}, {"smiles": "CCN(C(=O)CSc1nc2ccccc2nc1Cc1ccc(F)cc1)c1cccc(C)c1", "Potency": "inconclusive: 35.5 µM [activator, single point]"}, {"smiles": "COc1ccc(CNC(=O)CSc2c3c(nc4ccc(Cl)cc24)CCCC3)cc1", "Potency": "inconclusive: 31.6 µM [activator, single point]"}, {"smiles": "O=C(CCCn1c(=O)c2cccn2c2ccccc21)NCc1ccccc1Br", "Potency": "inconclusive: 4.47 µM [activator, full curve]"}, {"smiles": "CC(=O)c1ccc(N2CCN(C(=O)c3cc4c(C)nc5ccccc5c4o3)CC2)cc1", "Potency": "inconclusive: 39.8 µM [activator, single point]"}, {"smiles": "C=CCn1c(=O)c(C(=O)NCCc2ccc(Cl)cc2)c(O)c2cc(OC)c(OC)cc21", "Potency": "inconclusive: 6.31 µM [activator, single point]"}, {"smiles": "COc1cc(C2C(C(=O)c3cc4ccccc4o3)=C(O)C(=O)N2c2cc(C)on2)cc(OC)c1OC", "note": "(configuration not stated)", "Potency": "inconclusive: 22.4 µM [activator, partial curve]"}, {"smiles": "Cc1ccccc1Cn1c(=O)n(-c2ccc(Cl)cc2)c(=O)c2c3c(sc21)CCCC3", "Potency": "inactive"}, {"smiles": "O=C(C[n+]1cc(Br)cc2ccccc21)c1ccc(Cl)cc1", "Potency": "inactive"}, {"smiles": "CC1(C)Cc2c(C#N)c(N)sc(=S)c2CS1", "Potency": "inactive"}, {"smiles": "O=S(=O)(c1ccc2nc(N3CCN(c4ccccc4F)CC3)ccc2c1)N1CCCCC1", "Potency": "inconclusive: 31.6 µM [activator, single point]"}, {"smiles": "COc1ccc(-c2oc3ncnc(N)c3c2-c2ccccc2)cc1", "Potency": "inactive"}, {"smiles": "O=C(CCn1c(=O)c2sccc2n(Cc2ccc(F)cc2Cl)c1=O)NCc1ccc2c(c1)OCO2", "Potency": "inconclusive: 35.5 µM [activator, single point]"}, {"smiles": "Cc1cc(Br)ccc1NC(=O)c1sc2ncnc(N3CCN(c4ccccn4)CC3)c2c1C", "Potency": "inactive"}, {"smiles": "CCN1c2ccc(S(=O)(=O)N3CCOCC3)cc2N(Cc2ccc(OC)cc2)C1C", "note": "(configuration not stated)", "Potency": "inconclusive: 17.8 µM [activator, partial curve]"}, {"smiles": "Cn1c(=O)c2sccc2n2c(CCCC(=O)N3CCN(c4ccccn4)CC3)nnc12", "Potency": "inconclusive: 20 µM [activator, partial curve]"}, {"smiles": "Cc1ccccc1OCC(=O)Nc1c(C(=O)Nc2ccccc2F)oc2ccccc12", "Potency": "inconclusive: 5.01 µM [activator, single point]"}, {"smiles": "CCCNC(=O)Cn1nc(-c2ccc(OC)cc2)c2cnc3ccc(F)cc3c21", "Potency": "inactive"}, {"smiles": "CCOc1ccc(NC(=O)Cn2c(=O)n(CCCCC(=O)NCCc3ccc(Cl)cc3)c(=O)c3ccccc32)cc1", "Potency": "inconclusive: 28.2 µM [activator, single point]"}, {"smiles": "CCOC(=O)N1CCc2c(sc(NCc3ccc(N(CC)CC)cc3)c2C(=O)Nc2cc(OC)ccc2OC)C1", "Potency": "inactive"}, {"smiles": "CCOc1ccc(-n2c(SCC(=O)NCc3ccccc3)nc3n[nH]c(C)c3c2=N)cc1", "Potency": "inconclusive: 39.8 µM [activator, single point]"}, {"smiles": "CCOC(=O)CCSc1nc(N2CCOCC2)c2c(c1C#N)CC(C)(C)OC2", "Potency": "inconclusive: 39.8 µM [activator, single point]"}, {"smiles": "COc1ccc(NC(=O)CSc2ccc3nnc(-c4ccccn4)n3n2)cc1", "Potency": "inconclusive: 25.1 µM [activator, partial curve]"}, {"smiles": "CCOc1ccc(Sc2cc(C(=O)NCc3ccc(C)cc3)c3ccccc3n2)cc1", "Potency": "inconclusive: 39.8 µM [activator, single point]"}, {"smiles": "COCCCn1c(=N)c(C(=O)NC2CCCC2)cc2c(=O)n3cccc(C)c3nc21", "Potency": "inconclusive: 25.1 µM [activator, partial curve]"}, {"smiles": "COc1ccc(-c2cc(C(=O)Nc3ccccc3F)on2)cc1", "Potency": "inconclusive: 28.2 µM [activator, partial curve]"}, {"smiles": "CSc1nc(-c2ccccc2)c(C#N)c(=O)[nH]1", "Potency": "inconclusive: 28.2 µM [activator, partial curve]"}, {"smiles": "CCOC(=O)c1sc(NC(=O)CSc2nc3c(cc2C#N)CCCCCC3)c(C#N)c1C", "Potency": "inconclusive: 35.5 µM [activator, single point]"}, {"smiles": "CCCc1cc(=O)oc2c(C)c(OCC(=O)NCc3ccccn3)ccc12", "Potency": "inconclusive: 25.1 µM [activator, single point]"}, {"smiles": "NC(=S)c1cc2ccc(O)cc2oc1=O", "Potency": "active: 12.6 µM"}, {"smiles": "O=C(NCc1cccnc1)c1ccc(Cn2c(=S)[nH]c3ccc(Br)cc3c2=O)cc1", "Potency": "inconclusive: 35.5 µM [activator, single point]"}, {"smiles": "O=C(O)c1cccc(CSc2nnc(Cc3ccccc3)o2)c1", "Potency": "inconclusive: 6.31 µM [activator, single point]"}, {"smiles": "O=C(CNC(=O)c1ccccc1)OCc1cc(=O)n2cc(Br)ccc2n1", "Potency": "inconclusive: 25.1 µM [activator, partial curve]"}, {"smiles": "Cc1ccc(Nc2cc(C(=O)NCCc3ccccc3)c3ccccc3n2)c(C)c1", "Potency": "inconclusive: 39.8 µM [activator, single point]"}, {"smiles": "COc1ccc(S(=O)(=O)c2c(Nc3cccc(C)c3C)sc(C(=O)c3ccccc3)c2N)cc1", "Potency": "inactive"}, {"smiles": "O=C(Nc1cccc(C(F)(F)F)c1)c1ccc2c(c1)nnn2C1CCCC1", "Potency": "inconclusive: 35.5 µM [activator, single point]"}, {"smiles": "Cc1cc(C)c(NC(=O)C2CCCN2C)c(C)c1", "note": "(configuration not stated)", "Potency": "inactive"}, {"smiles": "CCS(=O)(=O)Nc1ccc(-c2cn3ccsc3n2)cc1", "Potency": "inconclusive: 17.8 µM [activator, partial curve]"}, {"smiles": "Cc1ccc(C(=O)c2c[nH]cc2-c2ccccc2)cc1", "Potency": "inactive"}, {"smiles": "COc1ccc(CCn2c(-c3ccc(F)cc3)nc3c(c(=O)c4ccccc4n3C)c2=O)cc1OC", "Potency": "inconclusive: 28.2 µM [activator, single point]"}, {"smiles": "Oc1ccc(COc2cccc3ccccc23)c2cccnc12", "Potency": "inactive"}, {"smiles": "COCc1cc(C)nc(Sc2nc3c(c(=O)n(C)c(=O)n3C)n2C)c1C#N", "Potency": "inconclusive: 17.8 µM [activator, partial curve]"}]}]}
